± gives the standard deviation of the averaged measurements. In all, about 33,000 sequences were measured (“E-score (dimensionless, -0.5 to 0.5)”: median about -0.046, highest 2% from about 0.36 on). The list shows a part of the results.
These sequences were tested on T1, SpTbr T-box DNA-binding domain (GST fusion) (assay: PBM E-score of 8-mer (E-score (dimensionless, -0.5 to 0.5)); Tbr is Tbrain of the sea star Patiria miniata (Pm) or the sea urchin Strongylocentrotus purpuratus (Sp); higher = stronger binding preference; most listed sequences are background and not binding sites). Settings: the construct has about 5 more residues each side.
T1 sequence: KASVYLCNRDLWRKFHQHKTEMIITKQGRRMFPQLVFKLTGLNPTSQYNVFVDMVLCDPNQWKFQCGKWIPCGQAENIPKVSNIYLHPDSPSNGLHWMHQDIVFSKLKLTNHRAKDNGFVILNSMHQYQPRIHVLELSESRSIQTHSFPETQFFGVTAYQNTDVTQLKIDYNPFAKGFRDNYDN
In short: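 Expression of GST-fused Tbr T-box DNA-binding domains, each holding the full T-box plus roughly five flanking residues, was carried out in BL21 E. coli at 20 °C, with purification by glutathione affinity chromatography. Universal Agilent arrays made double-stranded by primer extension were incubated with the protein at 200 nM in PBS (pH 7.5), then scanned and quantified. All ungapped 8-mers were scored from probe intensities, and each received an enrichment E-score from the Universal PBM Analysis Suite, averaged over duplicate arrays.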

Row | Sequence | PBM E-score of 8-mer
1 | GTACGCTA | -0.136 ± 0.0079
2 | ACAGAAGA | -0.244 ± 0.027
3 | ACGGTGTG | 0.3578 ± 0.0014
4 | AACACGCA | 0.21 ± 0.022
5 | CGTCTCCC | -0.168 ± 0.07
6 | AGACTTGA | -0.0714 ± 0.084
7 | GCATGCGC | -0.0608 ± 0.0047
8 | AGTACAAT | -0.107 ± 0.0088
9 | TGTTGGAA | 0.102 ± 0.079
10 | CATGCCCC | -0.219 ± 0.047
11 | GGCTCAAC | -0.283 ± 0.031
12 | CCGAAATC | -0.048 ± 0.0049
13 | CGTCTTAC | -0.194 ± 0.001
14 | CCCTTACG | -0.0777 ± 0.068
15 | TGTGCAAA | 0.225 ± 0.033
16 | CATATCTA | -0.24 ± 0.025
17 | AGCGGGTA | 0.0636 ± 0.022
18 | GCAGAGGC | -0.259 ± 0.011
19 | AAATAACG | 0.138 ± 0.08
20 | ATCGCCTG | 0.158 ± 0.087
21 | CGGGCGAG | -0.221 ± 0.018
22 | AGACGCAA | -0.228 ± 0.024
23 | GGGCAGAA | 0.143 ± 0.024
24 | CACTTTAG | 0.194 ± 0.097
25 | ATTGAGAC | -0.00788 ± 0.012

Row | Sequence | PBM E-score of 8-mer
26 | GGATGTAA | -0.206 ± 0.025
27 | GGATTCTA | -0.213 ± 0.02
28 | CTCGTAGC | -0.0266 ± 0.074
29 | ATCTGTTC | -0.0784 ± 0.067
30 | AGCAGATC | -0.117 ± 0.006
31 | ATATTTGC | -0.0908 ± 0.0053
32 | ATCGCAGG | 0.141 ± 0.035
33 | GAGCGTGC | 0.0903 ± 0.076
34 | GCCAGCAC | 0.18 ± 0.0012
35 | TCCGGAAA | -0.129 ± 0.0036
36 | CGCACCCG | 0.267 ± 0.054
37 | TCGACGAA | 0.0793 ± 0.013
38 | GTTAGGAA | -0.0675 ± 0.11
39 | ATGCCCGC | 0.031 ± 0.012
40 | CACATGAG | 0.186 ± 0.0081
41 | CAACTACC | -0.0272 ± 0.00088
42 | CGAGCGCA | -0.125 ± 0.023
43 | TAGACGCA | -0.139 ± 0.0035
44 | ACTTAAAC | 0.0599 ± 0.034
45 | AGCGAGGA | 0.0536 ± 0.0095
46 | CATGAAAG | 0.0519 ± 0.074
47 | CATACGGA | -0.0654 ± 0.014
48 | CCGGGCGC | 0.0707 ± 0.022
49 | AGGGCAAA | -0.301 ± 0.014
50 | GCGCAAAC | 0.214 ± 0.016

Row | Sequence | PBM E-score of 8-mer
51 | GCTGCAAC | -0.0405 ± 0.016
52 | ATGTGTTC | 0.111 ± 0.064
53 | CCGGGCGA | 0.00091 ± 0.0019
54 | ATGACACG | 0.315 ± 0.035
55 | AAACCGAG | -0.0868 ± 0.053
56 | AGCGTCGC | 0.151 ± 0.044
57 | AGGACGGA | -0.361 ± 0.018
58 | GCATAATA | -0.264 ± 0.0092
59 | AAGCAGGG | 0.0283 ± 0.034
60 | ACAATTTG | 0.118 ± 0.072
61 | GGTGGGGA | 0.248 ± 0.033
62 | AAACTGTA | -0.0341 ± 0.0062
63 | AGTGTAAT | 0.205 ± 0.042
64 | CACTAAAC | 0.16 ± 0.026
65 | AAACGGCG | 0.0915 ± 0.052
66 | CTGTCCAC | 0.0238 ± 0.083
67 | AAATATAA | -0.0489 ± 0.051
68 | CCACGAGG | 0.121 ± 0.011
69 | ACTACAGC | -0.0746 ± 0.044
70 | CGTTGCCA | 0.2464 ± 0.0017
71 | GGGCTGAA | -0.207 ± 0.016
72 | ATCGATTC | 0.0381 ± 0.02
73 | AGAGATAA | -0.0988 ± 0.061
74 | CACACACG | 0.233 ± 0.057
75 | ATCGGCTG | 0.0647 ± 0.039

Row | Sequence | PBM E-score of 8-mer
76 | CGTGGACC | -0.0726 ± 0.011
77 | AGTTTTTC | -0.127 ± 0.0073
78 | AACGCAGA | -0.146 ± 0.035
79 | GTGTCCCA | 0.00535 ± 0.026
80 | GGAGGCAA | -0.235 ± 0.025
81 | CAGCGAAC | 0.0905 ± 0.021
82 | AGGTCGAG | -0.0467 ± 0.015
83 | GCGCAATA | 0.0149 ± 0.02
84 | ATCAGGGG | -0.0758 ± 0.012
85 | GGCACATA | 0.212 ± 0.0026
86 | AGAAGGGC | -0.0801 ± 0.11
87 | CGGGCACG | -0.236 ± 0.084
88 | AACCTTCT | -0.0476 ± 0.056
89 | GTAATATA | -0.108 ± 0.1
90 | ACGTCGCA | 0.106 ± 0.065
91 | ACTGGGCA | -0.191 ± 0.021
92 | GTATGCTA | -0.00407 ± 0.024
93 | CCGCTAGG | -0.0592 ± 0.011
94 | CACCACAA | 0.182 ± 0.034
95 | GTAAGAAC | -0.0394 ± 0.088
96 | CTCGTAAC | -0.000405 ± 0.085
97 | AATTTCAA | -0.2005 ± 0.0015
98 | ACAAACCT | -0.229 ± 0.026
99 | CCATCAGG | 0.0038 ± 0.024
100 | ATATAAGG | -0.108 ± 0.013

Row | Sequence | PBM E-score of 8-mer
101 | TATCACGA | 0.153 ± 0.015
102 | CGGACACC | 0.228 ± 0.046
103 | AGCGGAGC | -0.239 ± 0.034
104 | GTCCGACA | 0.0199 ± 0.043
105 | GGGCGTTA | 0.2697 ± 0.0022
106 | TAGTCTGA | -0.132 ± 0.037
107 | ATGATTTA | -0.072 ± 0.048
108 | ACACCGAC | 0.292 ± 0.0031
109 | GGCAAATA | -0.125 ± 0.017
110 | CATCGGGA | -0.148 ± 0.02
111 | CAGGAGGG | -0.0635 ± 0.11
112 | GTCCCATA | -0.139 ± 0.074
113 | CCGCCGCA | -0.0972 ± 0.026
114 | CTCTCATC | -0.0524 ± 0.04
115 | CCCGGATA | -0.107 ± 0.029
116 | CGTCCACA | 0.148 ± 0.059
117 | CGGATCAA | 0.105 ± 0.079
118 | CATAATTA | -0.332 ± 0.027
119 | CTCCGAGC | -0.2244 ± 0.0021
120 | AAGATGTA | -0.116 ± 0.0028
121 | ACGGGTTC | 0.15 ± 0.018
122 | ACCCTAAT | -0.00936 ± 0.024
123 | GGCTCTAC | 0.0106 ± 0.024
124 | TAAGACAA | -0.0499 ± 0.041
125 | GCAACCAA | -0.19 ± 0.01

Row | Sequence | PBM E-score of 8-mer
126 | CTTCCCAC | 0.253 ± 0.032
127 | GGAACACC | 0.223 ± 0.035
128 | AGAACTAA | -0.136 ± 0.018
129 | ATCGACGG | -0.00276 ± 0.012
130 | GACCCTCC | -0.111 ± 0.013
131 | TCAACGCA | 0.12 ± 0.0066
132 | GACGGTGA | -0.109 ± 0.032
133 | CGTAGAGC | -0.325 ± 0.035
134 | CCATTCGA | -0.14 ± 0.034
135 | GACGTGGA | -0.193 ± 0.081
136 | AAGTAGCC | -0.123 ± 0.0025
137 | AGAGAGAC | -0.14 ± 0.036
138 | GCGAATTA | 0.134 ± 0.069
139 | ACAATTGG | 0.116 ± 0.035
140 | GAGCTTGC | -0.19 ± 0.0061
141 | AACATTTC | -0.0421 ± 0.076
142 | CCGACTCC | -0.189 ± 0.03
143 | GGTAATCA | 0.0652 ± 0.0063
144 | TAAAAGGA | 0.111 ± 0.022
145 | CTTGCGTC | -0.011 ± 0.059
146 | AAATCCAT | -0.13 ± 0.052
147 | AGCTACAG | -0.0943 ± 0.026
148 | ATGTGAAT | 0.0698 ± 0.064
149 | AGTTTACA | 0.227 ± 0.01
150 | AAAGAAGC | -0.193 ± 0.023

Row | Sequence | PBM E-score of 8-mer
151 | CCTCCTTC | -0.039 ± 0.045
152 | CCAAGCGC | 0.155 ± 0.025
153 | ACAGCGCA | -1.5e-05 ± 0.028
154 | ATCCGGCG | -0.12918 ± 9.2e-05
155 | ATACGGAT | 0.0271 ± 0.0067
156 | GGACTGCC | -0.0237 ± 0.028
157 | ATTAGCAC | 0.368 ± 0.038
158 | CTACCCCC | -0.382 ± 0.012
159 | GAGCCGCA | -0.00751 ± 0.028
160 | CCGACCGA | -0.2527 ± 0.002
161 | GGACTATA | -0.00851 ± 0.018
162 | CGAATTGC | 0.148 ± 0.0032
163 | AGGTACCG | -0.0809 ± 0.0053
164 | TCGCGGAA | 0.171 ± 0.024
165 | GAATCTGC | -0.0922 ± 0.056
166 | GATTTTGC | 0.0964 ± 0.028
167 | GCGACACC | 0.432 ± 0.021
168 | ACCCCTTC | 0.0858 ± 0.032
169 | CATCGCCG | -0.0375 ± 0.079
170 | CCACCGGC | -0.0932 ± 0.04
171 | CGTCTTTA | -0.184 ± 0.054
172 | CCCTTGCC | -0.14 ± 0.0031

— the supplement of paper PMC4166925
